Assay results published in the supplement of paper PMC5499739.
In all, about 16,000 sequences were measured (“Z-score”: median about -0.37, highest 2% from about 3.2 on). The list shows a part of the results.

What follows are sequences tested on RBM10 RRM1-ZnF (GST-tagged construct) (assay: RNAcompete 7-mer binding Z-score; higher = stronger binding preference).
Outline: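 In 1 ml Hepes pH 7.8 buffer with KCl, NaCl, glycerol, DTT, BSA and glutathione Sepharose beads, GST-tagged RBM10 constructs (20 pmol) were incubated for 30 min at 4°C with 1.5 nmol of a designed pool of 241 399 RNAs up to 41 nt. Four 2-min washes at 4°C followed, and bound RNA was detected by microarray hybridisation. Heptamer motif enrichment was expressed as a one-sided Z-score across probes containing each motif.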

Sequence	RNAcompete 7-mer binding Z-score
AGGAUGA	1.63
CAUAGGU	0.761
CCGCGUG	-0.0512
CCCGAGC	-0.493
CAACGGG	2.16
UAGCGUU	-0.405
AUGGGUC	2.19
GAUAAUC	-0.376
AGACCGA	-0.857
GAGUAUG	1.15
AGGAAUA	0.881
AAAGUUA	0.082
GAUAACU	-0.415
AAUGCGA	0.069
CUUACUA	-0.74
CUCCCCU	-0.314
GUGGUUC	0.716
GUAUGGC	0.917
GAGGGCA	2.12
CGCAGUC	-0.561
CUAAACA	-0.604
CACUUAA	-0.85
GGGAGCU	1.92
GCGGGUA	2.88
GCCUUAG	-0.483

Sequence	RNAcompete 7-mer binding Z-score
UACCAUC	-0.756
AAUCUCU	-0.932
AUGCUAG	-0.207
AGAUCUG	-0.483
AAUGUGC	-0.0155
GCCGCGG	0.241
UAUUGCG	-0.376
CGCGUGG	1.63
ACUCGCG	-0.503
GACUACA	-0.532
CGUUCCG	-0.62
CAGAACA	-0.337
UCCGGCG	-0.275
CGGUAGC	0.176
UAGUCAU	-0.444
UUGUAAA	-0.431
GCGCGGA	1.08
UCUUCCA	-0.704
CUAGCCA	-0.727
UAAGAGU	0.374
ACCGCUC	-0.75
AAUCCUG	-0.769
GAUUGCC	-0.633
GUUUGUG	0.865
UGCUCAG	-0.308

Sequence	RNAcompete 7-mer binding Z-score
CGACUAG	-0.0609
AUAGCCA	-0.431
GGGGCUU	1.38
GGUAGUG	2.47
GUAGGCA	1.31
CGAUUGC	-0.785
AGACACA	-0.506
ACCGAUA	-0.607
GAACCGG	0.391
ACAGACU	-0.386
CAAGCCG	-0.629
AUGGCGC	0.287
CACUAAC	-0.675
CCCCGGU	-0.0544
CUAUUUG	-0.691
CGCUCCU	-0.587
GAGGCGC	0.761
ACAUGGG	2.66
AUGCAAG	0.472
CAUAUGU	-0.428
ACGCACU	-0.694
UUGAUAG	0.209
UGCUCAC	-0.61
CACGCAU	-0.639
ACGGUUC	-0.0772

Sequence	RNAcompete 7-mer binding Z-score
CCUUACA	-0.928
ACAACCG	-0.474
GUAGAGA	1.43
CAGUUAG	-0.171
CGGCGGA	0.862
UACCCCA	-0.493
CCAAACU	-0.672
CCUUUAA	-0.899
CCUACUG	-0.759
GGCUCUA	-0.36
UAUGGCU	-0.149
AACCUGG	-0.256
UAUGUGU	0.124
UCCCGGU	-0.0772
CAAGGAG	2.17
UGGCAUC	-0.171
GCCAAGC	-0.539
ACAGCUU	-0.896
AGUAUUG	-0.168
UAUAAGU	-0.158
CUGCAGC	-0.522
UGCGUUU	-0.249
ACGGCGA	0.371
GUAGACA	0.82
CAAGAAG	0.111

Sequence	RNAcompete 7-mer binding Z-score
GUGCAGU	0.439
CUUCCUA	-0.844
CAGUAGU	-0.178
UCACAGG	0.647
CCAAAGA	-0.487
UCGUCGG	-0.22
CCAAGCG	-0.454
UGUCCGA	-0.792
CUUGUAA	-0.617
AGGGGAA	3.57
UUUUGGA	0.000789
UCGUAUA	-0.236
CCUAUAG	-0.779
ACCAUCC	-0.893
CGUCGUG	-0.103
AAUUGGC	0.553
UAAGCUC	-0.503
AAAAUGC	-0.197
UGUGUCG	0.043
GUGCGAA	0.638
AAAUUGC	-0.548
UAGGCGC	-0.236
GUAUACG	0.251
AUGUGAG	1.02
AGGGAAU	3.05

Sequence	RNAcompete 7-mer binding Z-score
UGCGCCA	-0.412
UAGCAUU	-0.558
AGGACAC	0.378
GAAGUAC	-0.0285
GUGGUCA	0.94
GACCCUA	-0.837
GUCUCGA	-0.591
UAGCCAA	-0.571
UACACUG	-0.431
GACGCAU	-0.262
AUCUCAA	-0.805
AACAUGC	-0.519
CCUCCCA	-0.448
GACACAA	-0.454
UCUGCGU	-0.688
GGAACCA	0.53
CACUAGU	-0.496
GGACCAC	0.248
UCACGCU	-0.47
AGGGUAU	3.69
UCGUCUC	-0.662
GCCCCGU	-0.386
CCAAACC	-0.828
GUACUUG	-0.106
AGAUCUA	-0.62

Sequence	RNAcompete 7-mer binding Z-score
CCACGAG	-0.451
GGGCCCU	-0.318
CGGAAGG	2.53
CUCUAGG	-0.0739
CGCCGGA	-0.383
UCGAGUU	-0.415
CCGGAGU	0.244
GGACUAU	0.000789
ACUCCCC	-0.584
GCUUCCG	-0.636
ACACCUA	-0.691
CAUCAAG	-0.47
CUACGCC	-0.743
GGUCCUU	-0.474
GCGUGAG	0.855
UGCCAAC	-0.636
GGAUAAU	1.2
AAGACUC	-0.561
GCAGAGU	0.605
GACUCAU	-0.844
CCCACGA	-0.581
UGGUUCC	-0.149
UUUGAUG	-0.249
GGGCUCG	1.03
ACACUUU	-0.88

Sequence	RNAcompete 7-mer binding Z-score
UCGAUGU	-0.444
CUGAGGA	0.433
UCGCAUU	-0.555
CAUCGCC	-0.811
CUAGCGC	-0.629
ACUGUCC	-0.714
GCGCGCU	-0.243
GAUGAUA	0.508
ACGGCAG	0.469
AAGGACU	0.901
UAUGGCC	-0.422
CACGAGG	0.417
GGGAACG	3.67
ACCUCCA	-0.779
UGGACCG	0.244
ACGCCGA	-0.818
GCAUAGU	0.147
AACUGUC	-0.555
UUCACGG	-0.448
GAAUGCA	0.0723
GCCUAAC	-0.668
GAAUCGC	-0.386
CCCAUCG	-0.629
GAAGUGA	1.5
ACGUCAA	-0.461

Sequence	RNAcompete 7-mer binding Z-score
AACAUAA	-0.535
CCGGUCA	-0.412
CAGCCGU	-0.795
CGGGGUU	2.77
UCUCGGC	-0.665
GCCGAGU	-0.516
GCCAAGG	0.797
UUUAGGA	0.326
GUGAUCG	0.365
CGUAGCG	-0.00571
UGCCUUG	-0.73
UGCGGGC	1.13
AACGCGA	-0.37
CGAAUGA	-0.314
GUUAUUC	-0.513
GUAAAAC	0.137
GCAGGAA	1.77
UGAGGUG	2.83
AUCAAUG	-0.246
GGCGCGG	1.8
ACCUAUA	-0.782
GCGUUUC	-0.396
UUGCUAC	-0.769
CCAGAAU	-0.539
UUAGUCG	-0.311

Sequence	RNAcompete 7-mer binding Z-score
GUCCUGU	-0.428
AGACCCA	-0.935
CUCAUGC	-0.876
CAACCCU	-0.831
CUACUUU	-0.902
UGCUCCC	-0.457
CCCGUAA	-0.685
CCGGUUG	0.335
CCGCCCG	-0.386
CUUUUCU	-0.886
UAUACCC	-0.743
AGUCAAC	-0.262
ACGCUGU	-0.558
UGGGACG	2.03
CAAAAUC	-0.785
GACUUGU	-0.62
AGCCCUG	-0.617
GGGCUCA	0.485
UCUUUAC	-0.795
UUGACGA	-0.324
GGUACCC	0.0203
UCGAUAC	-0.457
AGCCUAA	-0.759
UAGUCCG	-0.383
AUUGAGU	0.235

Sequence	RNAcompete 7-mer binding Z-score
CGCAAAC	-0.539
CCGCAGU	-0.513
AGUGAAA	0.8
UAUAUCU	-0.441
CUCCAAC	-0.548
CCGGUUU	-0.412
AAUCGUA	-0.448
UACCAGC	-0.49
GAGCAGU	0.215
UAGUUAC	-0.389
GAGGAGA	1.69
AGUUUUG	-0.0544
GAGUAGG	3.18
GCUAGCG	0.0138
CGGAUUC	-0.305
UGGUGAG	2.98
AGCUAGA	0.0235
AAGUAUC	-0.688
UGCGAGG	1.97
GGGUCUG	1.14
UAAAUAG	-0.0674
UACUAGA	-0.363
CCCAGGC	-0.259
CACCGCC	-0.529
UGAAUUG	0.329

Sequence	RNAcompete 7-mer binding Z-score
CUCCCAA	-0.646
UUUCGUG	-0.366
UAGGACU	0.313
UAUUAAC	-0.626
CCGACGC	-0.477
ACAACUG	-0.451
ACCCCUU	-0.772
AAAUCGC	-0.701
CGGACAU	0.0268
GUCUAGG	0.53
CGAGCCC	-0.665
GAACCUA	-0.587
GGUAGCC	0.784
CAACCGU	-0.694
GCGUGCC	-0.353
CCUUGCC	-0.763
AUGGUGA	2.6
UUGGACA	0.504
CCCCACC	-0.24
GGUGCGG	2.92
UAAUCGA	-0.201
GUGGGAU	3.68
CGGCGAU	-0.035
GCCUAUC	-0.873
GAUCUUU	-0.828

Sequence	RNAcompete 7-mer binding Z-score
AGAACCU	-0.958
ACGAGGU	0.959
AGUGUGC	0.0333
AGACUUG	-0.402
AAAUGGG	4.08
UCGCUGC	-0.617
AGGUAUC	-0.0544
ACCUAGU	-0.506
UGGAGAG	2.19
ACACCUG	-0.698
CAAUACC	-0.795
GGCUCCG	-0.314
CACACUG	-0.314
CGUACCG	-0.49
GGUGACA	2.03
CCCACUA	-0.733
AGGUAAC	0.852
CAUGUAU	-0.509
CCGGAAC	-0.49
ACAACCU	-0.785
AUGUAUG	0.264
UAAUUCU	-0.73
AGAAGUG	1.23
GCAUUUC	-0.86
AGAUCUC	-0.967

Sequence	RNAcompete 7-mer binding Z-score
GAAGAAA	0.91
ACCGGGC	-0.00571
CUUUUAU	-0.919
AGGCCAC	-0.591
GGGCGGC	1.85
ACACGCU	-0.552
CUAUUCU	-0.863
UACCGGC	-0.743
AAGGUGA	3.66
CUGUAAA	-0.694
UGGCUUC	-0.344
AAAUCUA	-0.61
CGUAUUA	-0.526
UUUCAAA	-0.857
AGUCCGU	-0.668
GUAACGC	-0.0285
AUCGUUG	-0.503
AGGUACC	-0.175
AAUGCGG	1.05
CUAGCAA	-0.617
UAAGCUU	-0.62
CAACGGC	-0.288
ACUAUGA	-0.412
CUUAAUU	-0.828
ACCGUUU	-0.941

Sequence	RNAcompete 7-mer binding Z-score
AAAGCGA	0.738
GGUAGCA	1.52
AACUUAG	-0.376
UUGAUAA	-0.321
GGUUCAG	0.547
GAGUUGA	0.878
UUAGUUU	-0.321
CGUGCGC	-0.103
UAGGCUA	0.186
CACAUGG	0.774
AAACUUA	-0.707
GUCCCGU	-0.321
AAUAGGU	1.37
AUCUCCG	-0.795
UACAAGA	-0.295
GCGAUUC	-0.591
UGUCACU	-0.552
